Measured values published in PubChem BioAssay AID504333 (National Center for Advancing Translational Sciences (NCATS), 2011).
In all, about 360,000 compounds went through this assay and about 16,000 (4.4%) were called active. This list was built around the results that the source calls inconclusive (neither active nor inactive); the mix of calls is not that of the screen. Calls come from the whole dose curve; as a rule, active = well fitted inhibition curve with a large enough effect; inconclusive = small, poorly fitted or top-dose-only effect; inactive = no such curve, though single readings can be large or run the other way. Potencies beside an inconclusive call are fits to weak or partial responses and may not hold up.
% is set by controls: 0 for no effect and ±100 for the full control effect; potency is the fitted concentration of half-maximal effect; tags give direction and shape of the fitted curve.
Note: nearly all actives have a fitted effect of over 60% in size.

These molecules were tested against Bromodomain adjacent to zinc finger domain protein 2B (Homo sapiens) (UniProt Q9UIF8) (assay: qHTS Assay for Inhibitors of BAZ2B). Settings: AlphaScreen BAZ2B-H3K14Ac peptide displacement; activity change, negative = inhibition: at 114 µM (top of the series).
Sequence of UniProt Q9UIF8 (Q9UIF8 whole entry, looked up, the tested form may be a part): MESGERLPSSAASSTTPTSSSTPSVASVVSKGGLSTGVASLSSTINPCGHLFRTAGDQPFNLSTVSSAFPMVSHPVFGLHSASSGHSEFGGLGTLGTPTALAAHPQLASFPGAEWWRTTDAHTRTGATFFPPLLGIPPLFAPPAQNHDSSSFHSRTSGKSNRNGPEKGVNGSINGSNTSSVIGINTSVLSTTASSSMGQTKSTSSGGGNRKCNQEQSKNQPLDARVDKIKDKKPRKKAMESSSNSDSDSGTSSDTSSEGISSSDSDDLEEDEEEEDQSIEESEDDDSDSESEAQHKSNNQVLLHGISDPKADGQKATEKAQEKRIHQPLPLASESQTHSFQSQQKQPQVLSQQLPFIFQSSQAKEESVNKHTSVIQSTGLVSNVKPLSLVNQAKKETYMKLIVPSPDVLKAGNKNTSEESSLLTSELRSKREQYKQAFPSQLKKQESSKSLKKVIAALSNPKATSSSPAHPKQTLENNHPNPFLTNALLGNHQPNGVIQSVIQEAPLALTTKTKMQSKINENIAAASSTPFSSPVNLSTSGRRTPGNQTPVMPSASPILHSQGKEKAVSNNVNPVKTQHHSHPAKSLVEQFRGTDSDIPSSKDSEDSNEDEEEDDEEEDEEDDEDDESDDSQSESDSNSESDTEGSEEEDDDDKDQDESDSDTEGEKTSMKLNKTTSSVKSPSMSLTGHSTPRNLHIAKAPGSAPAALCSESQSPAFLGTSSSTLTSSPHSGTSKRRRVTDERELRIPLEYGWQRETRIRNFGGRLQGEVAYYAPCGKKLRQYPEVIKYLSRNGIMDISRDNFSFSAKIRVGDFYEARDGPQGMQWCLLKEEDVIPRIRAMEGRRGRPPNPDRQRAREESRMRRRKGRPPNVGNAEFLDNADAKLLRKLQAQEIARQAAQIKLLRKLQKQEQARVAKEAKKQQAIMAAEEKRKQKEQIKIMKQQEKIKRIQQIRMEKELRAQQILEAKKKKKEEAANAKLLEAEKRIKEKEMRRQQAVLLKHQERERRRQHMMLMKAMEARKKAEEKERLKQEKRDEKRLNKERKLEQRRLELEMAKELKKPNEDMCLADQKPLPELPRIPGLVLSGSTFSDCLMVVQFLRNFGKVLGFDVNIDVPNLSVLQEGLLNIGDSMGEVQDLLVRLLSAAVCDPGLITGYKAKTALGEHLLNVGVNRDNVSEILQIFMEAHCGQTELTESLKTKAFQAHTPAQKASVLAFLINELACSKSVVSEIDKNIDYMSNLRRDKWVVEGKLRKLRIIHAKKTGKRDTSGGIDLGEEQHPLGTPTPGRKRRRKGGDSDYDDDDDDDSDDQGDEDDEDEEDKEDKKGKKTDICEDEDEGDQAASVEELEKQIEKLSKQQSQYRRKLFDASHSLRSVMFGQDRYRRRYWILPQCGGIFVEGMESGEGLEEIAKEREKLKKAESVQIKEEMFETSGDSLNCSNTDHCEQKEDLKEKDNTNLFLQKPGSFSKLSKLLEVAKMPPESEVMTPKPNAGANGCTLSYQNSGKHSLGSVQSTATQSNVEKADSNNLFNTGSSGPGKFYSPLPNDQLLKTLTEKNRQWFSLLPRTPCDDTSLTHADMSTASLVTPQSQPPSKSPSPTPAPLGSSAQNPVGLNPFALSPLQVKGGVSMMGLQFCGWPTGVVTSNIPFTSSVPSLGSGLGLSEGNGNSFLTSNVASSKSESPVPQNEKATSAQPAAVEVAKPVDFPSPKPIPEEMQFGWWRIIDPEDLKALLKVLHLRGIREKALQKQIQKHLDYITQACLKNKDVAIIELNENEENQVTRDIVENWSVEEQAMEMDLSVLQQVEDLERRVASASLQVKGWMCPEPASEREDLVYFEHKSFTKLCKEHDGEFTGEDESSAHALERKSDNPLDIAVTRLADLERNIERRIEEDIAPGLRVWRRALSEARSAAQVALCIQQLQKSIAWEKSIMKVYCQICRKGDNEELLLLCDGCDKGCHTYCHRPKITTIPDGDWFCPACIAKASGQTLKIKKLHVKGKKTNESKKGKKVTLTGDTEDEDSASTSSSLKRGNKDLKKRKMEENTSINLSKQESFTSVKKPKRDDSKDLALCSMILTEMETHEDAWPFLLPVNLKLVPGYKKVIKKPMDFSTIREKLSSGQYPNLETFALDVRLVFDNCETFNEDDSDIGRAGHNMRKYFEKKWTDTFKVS
Method in brief: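 BAZ2B (50 nM) with biotin-H3(5-23)K14Ac peptide (50 nM) in PBS pH 7.4, 0.01% Tween-20, preformed 30 min, then compound 30 min at room temperature; top concentration 110uM. AlphaScreen streptavidin donor/nickel chelate acceptor beads (10 ug/mL final), 20 min dark, signal read.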
For `CCn1ncc(CN2CCCC(C(=O)Nc3cccc(-c4cc5ccccc5[nH]4)c3)C2)c1C` (centres undefined), the Potency was inconclusive: 39.8 µM [inhibitor, partial curve].
In the case of `COc1ccc(NC(=O)/C=C/c2ccco2)cn1`, the Potency was inconclusive: 79.4 µM [inhibitor, partial curve].
For `CC(C)c1ccc(O)c(N)c1`, the Potency was inconclusive: 79.4 µM [inhibitor, single point].
In the case of `CCOC(=O)c1c(S(=O)(=O)NCCc2cccs2)c(C)n(C)c1C`, the Potency was inconclusive: 89.1 µM [inhibitor, partial curve].
`O=C(O)c1cccc(NC(=O)c2cn(-c3ccccc3)nc2-c2cc3ccccc3o2)c1` was tested, and the Potency was active: 50.1 µM.
`COc1cccc2[nH]c3c(N4CCN(Cc5ccc6c(c5)OCO6)CC4)ncnc3c12` was tested, and the Potency was active: 35.5 µM.
`Cc1cc(C(=O)COC(=O)c2ccc(O)cc2)c(C)n1Cc1ccco1` was tested, and the Potency was active: 50.1 µM.
For `Cn1c(CNc2ccc(Cl)cc2)nc2ccccc21`, the “activity change, negative = inhibition” value was inactive: -3.16%.
For `CCn1c(=O)n(CC)c2cc(N3CCCC3)c(NC(=O)c3ccccc3Br)cc21`, the Potency was inconclusive: 56.2 µM [inhibitor, partial curve].
For `CN(C)S(=O)(=O)c1ccc(NC(=O)CN2CCC(Cc3ccccc3)CC2)cc1`, the Potency was inconclusive: 79.4 µM [inhibitor, single point].
With `Nc1c(O)ccc2c1C(=O)c1ccccc1C2=O` the Potency was active: 25.1 µM.
In the case of `COc1ccc(S(=O)(=O)Nc2ccc(O)c(Sc3nc4ccccc4s3)c2)cc1`, the Potency was inconclusive: 79.4 µM [inhibitor, single point].
In the case of `COc1ccc(CN2CCN(C(=O)c3cccnc3)CC2)cc1Br`, the Potency was active: 35.5 µM.
In the case of `CCCC(=O)NC1CC(=O)N(c2ccc3c(c2)OCCO3)C1` (centres undefined), the “activity change, negative = inhibition” value was inactive: -0.344%.
`CCN(CC)CCN(Cc1cc2ccc(C)c(C)c2[nH]c1=O)C(=S)NCc1ccco1` was tested, and the Potency was inconclusive: 50.1 µM [inhibitor, partial curve].
With `Cc1ccc(-n2[nH]c(=O)c(-c3ccccn3)c2C)cc1` the Potency was active: 44.7 µM.
With `O=C(Nc1nc(N2C(=O)c3ccccc3C2=O)n(-c2ccccc2)n1)c1ccccc1` the Potency was inconclusive: 89.1 µM [inhibitor, single point].
`COCCNC(=S)Nc1cc(S(=O)(=O)N2CCOCC2)ccc1N1CCCCC1` was tested, and the Potency was inconclusive: 44.7 µM [inhibitor, partial curve].
For `COc1ccc(CNC(=O)C(OC(=O)c2ccco2)c2ccccc2)cc1` (centres undefined), the “activity change, negative = inhibition” value was inactive: -16.1%.
In the case of `COc1ccc(C2NC(=O)N(C)C3=C2C(=O)N(c2ccccc2)C3)cc1` (centres undefined), the Potency was inconclusive: 89.1 µM [inhibitor, single point].
`COc1ccc(CN2CCN(C(=O)c3ccco3)CC2)cc1OC` was tested, and the Potency was active: 39.8 µM.
In the case of `CCOC(=O)c1cc2c(ccn2C)n1CC(=O)N1CCC(Cc2ccccc2)CC1`, the Potency was active: 25.1 µM.
With `CN(CC(=O)Nc1cccc(F)c1)CC(=O)N1CCc2ccccc21` the “activity change, negative = inhibition” value was inactive: 12.3%.
In the case of `Nc1c2c(nc3c1CCC3)CCCC2`, the Potency was inconclusive: 89.1 µM [inhibitor, single point].
`CCOC(=O)c1c(C)[nH]c(C)c1S(=O)(=O)NC(C)Cc1ccco1` (centres undefined) was tested, and the Potency was inconclusive: 79.4 µM [inhibitor, single point].
For `C=Cc1ccc(Cn2c(C(=O)O)c(CNCc3cc(OC)ccc3OC)c3ccc(C)cc32)cc1`, the “activity change, negative = inhibition” value was inactive: -20.3%.
In the case of `NC(=S)N/N=C/c1c(O)ccc2ccccc12`, the Potency was active: 2.51 µM.
In the case of `Cc1cnc2c(C(=O)O)cnn2c1`, the Potency was inconclusive: 89.1 µM [inhibitor, single point].
In the case of `Cc1cc(C(=O)N/N=C/c2cc(Cl)cc([N+](=O)[O-])c2O)c2ccccc2n1`, the Potency was active: 39.8 µM.
For `c1ccc2c(c1)oc1c(NCC3CCCO3)ncnc12` (centres undefined), the “activity change, negative = inhibition” value was inactive: -35.2%.
`COc1ccc2nc(C)cc(SCC(=O)N/N=C/c3ccc(O)c(O)c3)c2c1` was tested, and the Potency was inconclusive: 22.4 µM [inhibitor, full curve].
With `Cc1ccc(-c2nnc(SCc3ccc(C#N)cc3)n2Cc2ccco2)cc1` the “activity change, negative = inhibition” value was inactive: -35%.
`O=[N+]([O-])c1ccccc1/C=C/CN1CCC(O)CC1` was tested, and the Potency was inconclusive: 89.1 µM [inhibitor, single point].
`CCOC(=O)c1nnc(-c2cccs2)nc1Oc1ccccc1C(=O)OC` was tested, and the Potency was inconclusive: 100 µM [inhibitor, single point].
For `Cc1ccc2c(c1)N(CC(=O)NCc1cccc(Cl)c1)C(=O)c1cccnc1O2`, the “activity change, negative = inhibition” value was inactive: 2.45%.
In the case of `CCCC(c1nnnn1CCc1ccccc1)N1CCC(C(N)=O)CC1` (centres undefined), the “activity change, negative = inhibition” value was inactive: -0.7%.
For `Cc1ccc(C2=NN(Cc3nnc(-c4ccccc4)o3)C(=O)SC2)cc1`, the “activity change, negative = inhibition” value was inactive: 7%.
`C/C(=N\NC(=O)C(=O)N/N=C(\C)c1cccc(O)c1)c1cccc(O)c1` was tested, and the Potency was inconclusive: 89.1 µM [inhibitor, single point].
`O=S(=O)(c1ccc(Cl)cc1)N1CCN(CCc2ccncc2)CC1` was tested, and the “activity change, negative = inhibition” value was inactive: 3.82%.
With `O=C1SC(SCc2ccccc2Cl)=N/C1=C\c1ccc(C(=O)O)cc1` the “activity change, negative = inhibition” value was inactive: 3.26%.
In the case of `Cc1cccc(N2C(=O)C(Cl)=C(Nc3c(C)n(C)n(-c4ccccc4)c3=O)C2=O)c1C`, the Potency was active: 50.1 µM.
In the case of `CCCn1c(N)c(C(c2ccc(C(=O)OC)cc2)N2CCN(c3ccccc3)CC2)c(=O)[nH]c1=O` (centres undefined), the Potency was inconclusive: 17.8 µM [inhibitor, full curve].
`COc1ccccc1/C=C/C(=O)Nc1nc(N)n(-c2ccccc2)n1` was tested, and the Potency was active: 56.2 µM.
In the case of `Cc1c(C(=O)N2CCOCC2)oc2c1-c1nn(CC(=O)NCc3ccccc3)cc1CC2`, the Potency was inconclusive: 79.4 µM [inhibitor, single point].
In the case of `O=C(c1ccc(Cn2c(=S)[nH]c3ccc(Br)cc3c2=O)cc1)N1CCN(C2CCCCC2)CC1`, the Potency was inconclusive: 22.4 µM [inhibitor, full curve].
With `O=C(CN1CCN(Cc2ccc(Cl)cc2)CC1)N/N=C/c1c[nH]c2ccccc12` the Potency was inconclusive: 44.7 µM [inhibitor, partial curve].
With `Cc1ccc(CN2C(=O)C3(SCC(=O)N3c3ccc(C)c(C)c3)c3ccccc32)cc1` (centres undefined) the Potency was inconclusive: 89.1 µM [inhibitor, single point].
For `CC1(CC(=O)Nc2ccccc2)NC(=S)N(c2ccccc2)N1` (centres undefined), the Potency was inconclusive: 79.4 µM [inhibitor, single point].
`Cc1cccc(N2CCN(c3c(CN4CCCC4)c(=O)oc4ccccc34)CC2)c1C` was tested, and the “activity change, negative = inhibition” value was inactive: -9.79%.
With `NC(=O)NC(CC(=O)NNC(=O)c1ccccn1)c1ccc(Cl)cc1` (centres undefined) the “activity change, negative = inhibition” value was inactive: 3.2%.
`C/C(=N\NC(=O)c1cccc(Cl)c1)C1C(=O)c2ccccc2C1=O` was tested, and the Potency was inconclusive: 31.6 µM [inhibitor, partial curve].
For `O=C(CC1S/C(=N/N=C2CCCCCC2)NC1=O)Nc1ccccc1C(F)(F)F` (centres undefined), the “activity change, negative = inhibition” value was inactive: 2.73%.
In the case of `Cc1ccc(C)c(NS(=O)(=O)c2ccc(-c3cnc(C4CC4)o3)cc2)c1`, the Potency was inconclusive: 50.1 µM [inhibitor, partial curve].
`Cc1cccc(Cl)c1OCCCN1CCOCC1` was tested, and the Potency was inconclusive: 79.4 µM [inhibitor, single point].
In the case of `CC(C)Oc1cccc(C(=O)NC2=NCCS2)c1`, the Potency was inconclusive: 0.891 µM [inhibitor, full curve, poor fit].
For `CCCS(=O)(=O)c1c(S(=O)(=O)CCC)c2cc(C(C)(C)C)ccn2c1C(=O)c1ccc(OC)c(OC)c1`, the “activity change, negative = inhibition” value was inactive: -22.6%.
`CCC1CCCCN1S(=O)(=O)c1ccc2[nH]c(=O)ccc2c1` (centres undefined) was tested, and the Potency was inconclusive: 89.1 µM [inhibitor, single point].
In the case of `COc1ccccc1N1CCN(C(=O)c2cc(-c3ccco3)on2)CC1`, the “activity change, negative = inhibition” value was inactive: -8.24%.
In the case of `Cc1ccc(N2C(=O)SC(Cc3ccccc3)C2=O)cc1` (centres undefined), the “activity change, negative = inhibition” value was inactive: -16.4%.
In the case of `O=C(c1ccc2ccccc2c1)C1CCCN(C(=O)c2noc3c2CCCC3)C1` (centres undefined), the Potency was inconclusive: 79.4 µM [inhibitor, single point].
In the case of `Cc1nc(C)c(-c2csc(NCc3ccccc3)n2)s1`, the Potency was active: 50.1 µM.
`CC(=O)N(CCCN1CCOCC1)Cc1ccncc1` was tested, and the Potency was inconclusive: 89.1 µM [inhibitor, single point].
In the case of `CCC(=O)N1c2ccccc2CC1C(=O)NCCCN1CCN(c2ccccc2)CC1` (centres undefined), the Potency was inconclusive: 79.4 µM [inhibitor, partial curve].
For `Cc1ccc(Cl)cc1N1CCN(S(=O)(=O)c2c(C)[nH]c(C)c2C(=O)N2CCCCC2)CC1`, the Potency was inconclusive: 25.1 µM [inhibitor, single point].
`COCCNC(=O)Cn1c(=O)n(Cc2ccco2)c(=O)c2ccccc21` was tested, and the Potency was inconclusive: 89.1 µM [inhibitor, single point].
`COc1ccc(CCNCCC(=O)Nc2c(C)cc(C)cc2C)cc1OC` was tested, and the “activity change, negative = inhibition” value was inactive: -6.15%.
In the case of `COc1ccc(/C=C/C(=O)c2cc(Br)ccc2O)cc1OC`, the Potency was inconclusive: 17.8 µM [inhibitor, full curve].
With `Cc1sc(N)nc1-c1ccc(Oc2ccccc2)cc1` the Potency was active: 50.1 µM.
For `CCCCCCC(=O)Nc1nc(C)c(-c2csc(Nc3cc(Cl)ccc3OC)n2)s1`, the Potency was inconclusive: 89.1 µM [inhibitor, single point].
`O=[N+]([O-])c1ccc(N/N=C/c2sc(N3CCOCC3)nc2-c2ccccc2)c(S(=O)(=O)Nc2ccccc2Cl)c1` was tested, and the Potency was inconclusive: 28.2 µM [inhibitor, partial curve].
For `O=C(CCn1nc(-c2ccc(Cl)cc2)ccc1=O)N1CCN(c2ccccn2)CC1`, the “activity change, negative = inhibition” value was inactive: -3.43%.
For `CCCCC(=O)Nc1nnc(S(=O)(=O)N2CCCCCC2)s1`, the Potency was inconclusive: 5.62 µM [inhibitor, full curve].
With `CCC(C)NCCOCCOc1ccc(Cl)c2ccccc12` (centres undefined) the Potency was inconclusive: 89.1 µM [inhibitor, single point].
In the case of `O=C1C=CC(=C(c2ccc(O)cc2)c2ccc(O)cc2)C=C1`, the Potency was inconclusive: 70.8 µM [inhibitor, single point].
